Patent publication US11136613B2, “Antibacterial polypeptide libraries and methods for screening the same” (priority 2015, dated 2021)

Tested on: antimicrobial peptide resistant E. coli strain WD101
Assay: Peptide library screen by next-generation sequencing, output versus input abundance
Conditions: WD101, 0.1 mM IPTG, 3 hours
Source text: FIGS. 5A-B: (A) Abundance of sequencing reads from the input library is plotted against abundance of sequencing reads from a representative output sample. The red box encloses peptides that are 15-125 fold depleted in the output samples. (B) Peptide A, shown in panel 5A, was re-cloned into our surface expression system and grown in wild type W3110 E. coli and the isogenic antimicrobial resistant E. coli strain WD101. IPTG induction of Peptide A led to cell lysis of both strains. Lysis by cecropin P1 is shown as a control.
A significant advancement of this platform is using next-generation sequencing to quantify the antimicrobial activity of individual peptides as part of a massive pool. This increases throughput while greatly reducing screening costs. The inventors' platform uses simple subtractive analysis of output from input library pools to determine peptide sequences that cause cell lysis and eliminate themselves from the input pool. One lane of a standard HiSeq Illumina sequencer generates 200 million sequencing reads. […]
Using this workflow, the inventors performed a proof of principle experiment, to validate the use of the platform to identify potent antimicrobial peptides. […] Approximately 2 million sequencing reads for input and output samples were acquired, giving ˜20 fold coverage of each input peptide sequence. […]

cecropin P1 (SWLSKTAKKLENSAKKRISEGIAIAIQGGPR; Cecropin-P1; UniProt P14661 14-44, looked up)
output/input ratio of sequencing reads: did not change
